Hit rate of the full screen: of about 350,000 compounds, about 9,900 (2.8%) were called active. The shares of active, inactive and inconclusive entries below differ from those in the screen. Calls come from the whole dose curve; as a rule, active = well fitted activation curve with a large enough effect; inconclusive = small, poorly fitted or top-dose-only effect; inactive = no such curve, though single readings can be large or run the other way. No potency is given beside an inconclusive call; the fits are too rough.
Test: A quantitative high throughput screen for small molecules that induce DNA re-replication in MCF 10a normal breast cells. For activity, positive = re-replication: % of control where 0% means no effect. Note: nearly all actives have a fitted effect of over 50% in size.
Details: MCF 10A DNA re-replication, Hoechst nuclear intensity, 48 h; activity, positive = re-replication: at 46.1 µM (top of the series)
In the case of `O=C(COC(=O)CCCNC(=O)c1ccc(Cl)cc1)Nc1cc(Cl)ccc1Cl`, the Potency is reported as inconclusive [activator, partial curve, poor fit]. With `COc1ccc(NC(=O)c2sccc2OS(=O)(=O)N(C)C)cc1` the “activity, positive = re-replication” value was inactive: 5.73%. For `CN1C(=O)/C(=C/c2ccccc2Cl)Sc2ccc(C(=O)N3CCCC3)cc21`, the Potency was active: 18.4 µM. For `Cc1ccc(N=c2c([N+](=O)[O-])nn(-c3ccc4c(c3)OCCO4)n2O)cc1F`, the Potency was inconclusive [activator, partial curve, poor fit]. With `CC(=O)c1ccc(-n2ccc(=O)cc2)cc1` the “activity, positive = re-replication” value was inactive: -12.1%. In the case of `O=C(N/N=C/c1c(O)n(Cc2ccccc2)c(=O)c2ccccc12)c1cccnc1`, the Potency is reported as inconclusive [activator, single point]. For `Cc1cc(NC(=O)C(C)SCC(=O)Nc2ccc(SC(F)F)cc2)no1` (configuration not stated), the “activity, positive = re-replication” value was inactive: 10.4%. For `COc1ccc(OC)c(NS(=O)(=O)c2ccc(NC(=O)C3COc4ccccc4O3)cc2)c1` (configuration not stated), the Potency was inconclusive [activator, single point]. In the case of `CC(C)(C)NS(=O)(=O)c1ccc(NC(=O)C(Sc2ccccc2)c2ccccc2)cc1` (configuration not stated), the Potency is reported as inconclusive [activator, partial curve]. With `O=C(Nc1sc2c(c1C(=O)NCc1cccnc1)CCCC2)c1ccco1` the Potency was inconclusive [activator, single point]. For `COc1ccc(NC(=O)/C(Cl)=C(/Cl)S(=O)(=O)Cc2ccc(C)cc2)cn1`, the Potency was inconclusive [activator, partial curve, poor fit]. In the case of `Nc1nnc(COc2ccccc2)s1`, the Potency is reported as inconclusive [activator, single point]. In the case of `O=C1c2ccccc2C(Nc2ccc(Cl)cc2)N1CCN1CCOCC1` (configuration not stated), the “activity, positive = re-replication” value is reported as inactive: 6.24%. With `CCSc1nc(-c2cccs2)nc2ccccc12` the Potency was inconclusive [activator, single point]. For `CCCCn1nc(C(=O)NCC(=O)Nc2c(C)cccc2C)c2ccccc2c1=O`, the “activity, positive = re-replication” value was inactive: -6.11%. In the case of `N=c1c(S(=O)(=O)c2ccc(Br)cc2)cc2c(=O)n3ccccc3nc2n1Cc1ccco1`, the Potency is reported as inconclusive [activator, single point]. With `O=S(=O)(NC1CC1)c1ccc(S(=O)(=O)N2CCCC3(CCCCC3)C2)cc1` the Potency was active: 14.6 µM. For `CC(=O)N(C)c1ccc(NC(=O)Nc2ccc(Cl)cc2)cc1`, the Potency was inconclusive [activator, partial curve, poor fit]. With `CCOC(=O)C1CCN(Cc2nnc(-c3cccc(Br)c3)o2)CC1` the Potency was inconclusive [activator, single point]. With `CCOc1ccc(CCN2C(=S)N([C@@H](CC(C)C)CN3CCCC3CN3C(=S)NC[C@@H]3Cc3ccc(O)cc3)C[C@@H]2Cc2ccc(O)cc2)cc1` (some centres not stated) the Potency was inconclusive [activator, full curve, poor fit]. For `COc1cc(Cl)ccc1OCc1cc(C(=O)N(C)Cc2cccc3cnccc23)no1`, the Potency was inconclusive [activator, partial curve, poor fit]. With `O=C(NN1CCOCC1)c1cc(-c2cccc(Cl)c2)nc2ccccc12` the “activity, positive = re-replication” value was inactive: -2.84%. In the case of `COc1cc(/C=C(/C(=O)c2cccs2)c2nc3ccccc3[nH]2)ccc1O`, the Potency is reported as active: 4.11 µM. With `C=CCNC(=O)C1CC(=O)N(c2ccc(OCc3ccc(F)cc3)cc2)C1` (configuration not stated) the “activity, positive = re-replication” value was inactive: 18.8%. In the case of `O=C(Oc1c(-c2ccccc2)c(=O)n2c3c(cccc13)CC2)c1cccc([N+](=O)[O-])c1`, the Potency is reported as inconclusive [activator, partial curve]. For `C#CCOCCOCCOCCNc1nc(N2CCN(C(=O)CCCCCCCCCCNC(=O)[C@H](CCCCN)n3cc(CCO)nn3)CC2)nc(N2CCN(C(=O)CCCCCCCCCCNC(=O)[C@H](CCCCN)n3cc(C[C@@H](C)CC)nn3)CC2)n1`, the Potency was inconclusive [activator, single point]. In the case of `Cc1ccc(-c2cc(C(=O)N/N=C/c3c(C)nn(C)c3C)c3ccccc3n2)cc1C`, the Potency is reported as inconclusive [activator, single point]. In the case of `C#CCSc1cc(C(F)(F)F)nc(-c2ccccn2)n1`, the “activity, positive = re-replication” value is reported as inactive: 6.98%. For `Cc1cc(=O)oc2c3c(cc(OCC(=O)NCc4ccco4)c12)OC(C)(C)CC3`, the Potency was inconclusive [activator, single point]. For `NC(=O)c1nsc(C(=O)N(c2ccccc2)C(C(=O)NCc2ccc(F)cc2)c2ccco2)c1N` (configuration not stated), the Potency was inconclusive [activator, single point]. For `O=C(Nc1ccc(Cl)cc1)N1CCCN(Cc2ccccc2F)C1`, the “activity, positive = re-replication” value was inactive: -5.16%. In the case of `CC(=O)Nc1ccc(NC(=O)CS(=O)(=O)Cc2ccccc2)cc1`, the “activity, positive = re-replication” value is reported as inactive: 0.951%. In the case of `CCOc1ccc(N/C(C)=C/C(=O)c2ccc3c(c2)OCCO3)cc1`, the “activity, positive = re-replication” value is reported as inactive: 2.71%. In the case of `Cc1ccc(C)c(N(C(=O)CNC(=O)c2ccco2)C(C(=O)NC2CCCC2)c2ccncc2)c1` (configuration not stated), the “activity, positive = re-replication” value is reported as inactive: -3.28%. With `CCn1c(NC(=O)c2ccc(COc3ccc(C)cc3[N+](=O)[O-])o2)nc2ccccc21` the Potency was inconclusive [activator, partial curve, poor fit]. For `Cc1ccc2c(c1)c1cccc3c1n2CCN3CCC(N)=O`, the Potency was inconclusive [activator, partial curve, poor fit]. In the case of `CC1(C)CC2CC(C)(CN2C(=S)NC(=O)c2ccccc2Cl)C1` (configuration not stated), the Potency is reported as inconclusive [activator, partial curve, poor fit]. In the case of `Cc1nc2c3ccccc3nc(SCC(=O)c3ccc(Cl)cc3)n2n1`, the Potency is reported as inconclusive [activator, partial curve, poor fit]. For `CC1(C)Cc2ccccc2C(=NC(Cc2ccccc2)C(=O)O)N1` (configuration not stated), the Potency was inconclusive [activator, single point]. With `CCn1c(=O)cc(SCC(=O)NCC2CCCO2)c2ccccc21` (configuration not stated) the “activity, positive = re-replication” value was inactive: 3.92%. In the case of `Cc1ccc2[nH]c(CNC(=O)c3ccccc3F)cc2c1`, the Potency is reported as inconclusive [activator, partial curve]. For `CC(C)(c1ccccc1)c1ccc(OCC(O)CNC2CCN(Cc3ccccc3)CC2)cc1` (configuration not stated), the Potency was inconclusive [activator, single point].
Potency is the fitted concentration of half-maximal effect; tags give direction and shape of the fitted curve.
